# Data published in the supplement of paper PMC8728848.
# Some of the results follow.
# B1: CBM40 CPF071 (Clostridium perfringens) (protein)
# chain: MAHHHHHHVGTGSNDDDDKSPDPMLSSLGEYKDINLESSNASNITYDLEKYKNLDEGTIVVRFNSKDSKIQSLLGISNSKTKNGYFNFYVTNSRVGFELRNQKNEGNTQNGTENLVHMYKDVALNDGDNTVALKIEKNKGYKLFLNGKMIKEVKDTNTKFLNNIENLDSAFIGKTNRYGQSNEYNFKGNIGFMNIYNEPLGDDYLLSKTGETK
# How the values were obtained:
# Test in all cases: glycan array binding signal (z-score within array); higher = stronger binding
# Details in all cases: glycan notation: IUPAC condensed, linker removed
# Neu5Ac(a2-8)Neu5Ac = molecular target: Neu5Ac(a2-8)Neu5Ac
# Procedure, shortened: (§1)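 Glycan array binding is given as a within-array Z-score, which can be read as non-binding when negative. The arrays, 3228 of them, came from the Consortium for Functional Glycomics database and were retained only where the protein sequence was available. Z-scores were averaged across arrays of the same protein sequence at different concentrations or buffers and across linkers.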
# [1] = molecular target: Neu5Ac(a2-8)Neu5Ac(a2-3)Gal(b1-3)GalNAc(b1-4)[Neu5Ac(a2-3)]Gal(b1-4)Glc
# Procedure, shortened: as §1
# [2] = molecular target: Neu5Ac(a2-8)Neu5Ac(a2-3)Gal(b1-3)GalNAc(b1-4)[Neu5Ac(a2-8)Neu5Ac(a2-3)]Gal(b1-4)Glc
# Procedure, shortened: as §1
# [3] = molecular target: Neu5Ac(a2-8)Neu5Ac(a2-3)Gal(b1-4)Glc
# Procedure, shortened: as §1
# [4] = molecular target: Neu5Ac(a2-8)Neu5Ac(a2-3)Gal(b1-4)GlcNAc
# Procedure, shortened: as §1
# [5] = molecular target: Neu5Ac(a2-8)Neu5Ac(a2-3)[Gal(b1-3)GalNAc(b1-4)]Gal(b1-4)Glc
# Procedure, shortened: as §1
# [6] = molecular target: Neu5Ac(a2-8)Neu5Ac(a2-3)[GalNAc(b1-4)]Gal(b1-4)Glc
# Procedure, shortened: as §1
# [7] = molecular target: Neu5Ac(a2-8)Neu5Ac(a2-8)Neu5Ac
# Procedure, shortened: as §1
# [8] = molecular target: Neu5Ac(a2-8)Neu5Ac(a2-8)Neu5Ac(a2-3)Gal(b1-4)Glc
# Procedure, shortened: as §1
# [9] = molecular target: Neu5Ac(a2-8)Neu5Ac(a2-8)Neu5Ac(a2-3)[Gal(b1-3)GalNAc(b1-4)]Gal(b1-4)Glc
# Procedure, shortened: as §1
# [10] = molecular target: Neu5Ac(a2-8)Neu5Ac(a2-8)Neu5Ac(a2-3)[GalNAc(b1-4)]Gal(b1-4)Glc
# Procedure, shortened: as §1
# [11] = molecular target: Neu5Ac(a2-8)Neu5Ac(a2-8)Neu5Ac(a2-8)Neu5Ac(a2-3)[GalNAc(b1-4)]Gal(b1-4)Glc
# Procedure, shortened: as §1
# [12] = molecular target: Neu5Ac(a2-8)Neu5Gc(a2-3)Gal(b1-4)GlcNAc
# Procedure, shortened: as §1
# [13] = molecular target: Neu5Ac(b2-6)Gal(b1-4)GlcNAc
# Procedure, shortened: as §1
# Neu5Ac(b2-6)GalNAc = molecular target: Neu5Ac(b2-6)GalNAc
# Procedure, shortened: as §1
# [14] = molecular target: Neu5Ac9Ac(a2-3)Gal(b1-3)GlcNAc
# Procedure, shortened: as §1
# [15] = molecular target: Neu5Ac9Ac(a2-3)Gal(b1-4)GlcNAc
# Procedure, shortened: as §1
# [16] = molecular target: Neu5Ac9Ac(a2-6)Gal(b1-4)GlcNAc
# Procedure, shortened: as §1
# [17] = molecular target: Neu5Gc(a2-3)Gal(b1-3)GlcNAc
# Procedure, shortened: as §1
# [18] = molecular target: Neu5Gc(a2-3)Gal(b1-3)[Fuc(a1-4)]GlcNAc
# Procedure, shortened: as §1
# Neu5Gc(a2-3)Gal(b1-4)Glc = molecular target: Neu5Gc(a2-3)Gal(b1-4)Glc
# Procedure, shortened: as §1
# [19] = molecular target: Neu5Gc(a2-3)Gal(b1-4)GlcNAc
# Procedure, shortened: as §1
# [20] = molecular target: Neu5Gc(a2-3)Gal(b1-4)GlcNAc(b1-3)Gal(b1-4)GlcNAc(b1-2)Man(a1-3)[Neu5Gc(a2-3)Gal(b1-4)GlcNAc(b1-3)Gal(b1-4)GlcNAc(b1-2)Man(a1-6)]Man(b1-4)GlcNAc(b1-4)GlcNAc
# Procedure, shortened: as §1
# [21] = molecular target: Neu5Gc(a2-3)Gal(b1-4)[Fuc(a1-3)]GlcNAc
# Procedure, shortened: as §1
# [22] = molecular target: Neu5Gc(a2-6)Gal(b1-4)GlcNAc
# Procedure, shortened: as §1
# Neu5Gc(a2-6)GalNAc = molecular target: Neu5Gc(a2-6)GalNAc
# Procedure, shortened: as §1
# [23] = molecular target: Neu5Gc(a2-8)Neu5Ac(a2-3)Gal(b1-4)GlcNAc
# Procedure, shortened: as §1
# [24] = molecular target: Neu5Gc(a2-8)Neu5Gc(a2-3)Gal(b1-4)GlcNAc
# Procedure, shortened: as §1
# [25] = molecular target: Neu5Gc(a2-8)Neu5Gc(a2-3)Gal(b1-4)GlcNAc(b1-3)Gal(b1-4)GlcNAc
# Procedure, shortened: as §1
# [26] = molecular target: Neu5Gc(a2-8)Neu5Gc(a2-6)Gal(b1-4)GlcNAc
# Procedure, shortened: as §1
# [27] = molecular target: Neu5Gc(b2-6)Gal(b1-4)GlcNAc
# Procedure, shortened: as §1
binder,measurement,setting,value
B1,glycan array binding signal (z-score),Neu5Ac(a2-8)Neu5Ac,0.538
same,glycan array binding signal (z-score),[1],-0.205
same,glycan array binding signal (z-score),[2],0.004
same,glycan array binding signal (z-score),[3],-0.44
same,glycan array binding signal (z-score),[4],0.138
same,glycan array binding signal (z-score),[5],0.004
same,glycan array binding signal (z-score),[6],-0.152
same,glycan array binding signal (z-score),[7],-0.128
same,glycan array binding signal (z-score),[8],-0.245
same,glycan array binding signal (z-score),[9],-0.228
same,glycan array binding signal (z-score),[10],-0.206
same,glycan array binding signal (z-score),[11],-0.358
same,glycan array binding signal (z-score),[12],-0.502
same,glycan array binding signal (z-score),[13],0.126
same,glycan array binding signal (z-score),Neu5Ac(b2-6)GalNAc,-0.314
same,glycan array binding signal (z-score),[14],1.21
same,glycan array binding signal (z-score),[15],0.24
same,glycan array binding signal (z-score),[16],-0.331
same,glycan array binding signal (z-score),[17],0.189
same,glycan array binding signal (z-score),[18],0.909
same,glycan array binding signal (z-score),Neu5Gc(a2-3)Gal(b1-4)Glc,0.235
same,glycan array binding signal (z-score),[19],1.51
same,glycan array binding signal (z-score),[20],2.46
same,glycan array binding signal (z-score),[21],-0.12
same,glycan array binding signal (z-score),[22],-0.336
same,glycan array binding signal (z-score),Neu5Gc(a2-6)GalNAc,0.037
same,glycan array binding signal (z-score),[23],-0.109
same,glycan array binding signal (z-score),[24],-0.362
same,glycan array binding signal (z-score),[25],0.304
same,glycan array binding signal (z-score),[26],-0.613
same,glycan array binding signal (z-score),[27],-0.495
